In PubChem BioAssay AID662 (National Center for Advancing Translational Sciences (NCATS), 2007):
Screen size: about 71,000 compounds; about 1,800 (2.5%) were called active. This list was built around the results that the source calls inconclusive (neither active nor inactive); the mix of calls is not that of the screen. Calls come from the whole dose curve; as a rule, active = well fitted activation curve with a large enough effect in the signal ratio, with a control signal flat (not every such curve was filed as active); inconclusive = small, poorly fitted or top-dose-only effect, or effect the other way, or a change in a side signal; inactive = flat fitted curve, though single readings scatter; the % refers to the signal ratio. Potencies beside an inconclusive call are fits to weak or partial responses and may not hold up.

Assay: Cell signaling CRE-BLA (Fsk stim); for activity change, negative = inhibition: % of control where 0% means no effect
Settings: CHO CRE-bla reporter (cAMP response element driving beta-lactamase), forskolin EC10, beta-lactamase ratio; activity change, negative = inhibition: at 38.2 µM (top of the series) unless noted
Procedure, shortened: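 Forskolin analogue NKH 477 at EC10 stimulated CRE-driven beta-lactamase in CHO cells alongside compound dilution series. Beta-lactamase was measured with CCF4, excitation 405 nm, emission ratio 460/530 nm.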
Potency is the fitted concentration of half-maximal effect; tags give direction and shape of the fitted curve.

Which activity change, negative = inhibition does the source give for `O=C1C2C3C=CC(C3)C2C(=O)N1CNc1ccc(O)cc1` (configuration not stated) here?
Its activity change, negative = inhibition is “inactive”.

With `COc1cccc(-c2cc(NCc3cccc(C)c3)ncn2)c1` as the molecule, how does the Potency read?
Its Potency is active: 5.01 µM.

For `CCOC(=O)C1CCN(C(=O)CSc2n[nH]c(=O)[nH]c2=O)CC1`, which Potency is on record?
Its Potency is inconclusive: 3.16 µM [falling, single point].

With `O=C(O)C1CSC2(c3ccc4c(c3)OCCO4)CCC(=O)N12` (configuration not stated) as the molecule, how does the activity change, negative = inhibition read?
The activity change, negative = inhibition was “inactive”.

With `NCCC[C@@H](CC(=O)N[C@@H]1CCNC[C@H]1C(=O)N[C@H](CC(=O)N[C@@H](CCC(=O)O)CC(=O)O)Cc1ccccc1)NC(=O)C[C@H](Cc1c[nH]c2ccccc12)NC(=O)[C@@H]1CCCC[C@H]1N` as the molecule, how does the activity change, negative = inhibition read?
The activity change, negative = inhibition was “inactive”.

Which activity change, negative = inhibition does the source give for `CCc1ccccc1NC(=O)CCc1nc(-c2ccc(C)cc2)no1` here?
Its activity change, negative = inhibition is “inactive”.

With `O=C(O)c1ccc(CSc2nnc(COc3ccc(Cl)cc3Cl)o2)cc1` as the molecule, how does the Potency read?
The Potency was inconclusive: 15.8 µM [rising, single point].

Which activity change, negative = inhibition does the source give for `COc1cccc(Cn2c(=O)c(-c3cccc(C#N)c3)nc3cnc(Nc4ccccc4)nc32)c1` here?
The activity change, negative = inhibition was inconclusive: 20%.

Which Potency does the source give for `COc1ccc(CCN(C)CCCOc2ccc(S(=O)(=O)c3[nH]c4ccccc4c3C(C)C)cc2)cc1OC` here?
Its Potency is inconclusive: 15.8 µM [rising, partial curve].

Which activity change, negative = inhibition does the source give for `CC(=O)Nc1cccc(C(=O)OCc2ccccc2)c1` here?
Its activity change, negative = inhibition is “inactive”.

Which activity change, negative = inhibition does the source give for `CC(=O)Cc1nsc(NC(=O)c2ccc(-c3cccc(C(F)(F)F)c3)o2)n1` here?
Its activity change, negative = inhibition is inconclusive: -3.58%.

For `Cc1ccc2cccc(O)c2[n+]1[O-]`, which activity change, negative = inhibition is on record?
Its activity change, negative = inhibition is inconclusive: 20.8%.

For `CCc1nnc(NC(=O)CSc2nc(-c3ccc(OC)cc3)ns2)s1`, which activity change, negative = inhibition is on record?
The activity change, negative = inhibition was inconclusive: -9.89%.

For `Cc1cnc(CNc2ccnc(-c3cccc(NS(C)(=O)=O)c3)n2)cn1`, which Potency is on record?
The Potency was inconclusive: 12.6 µM [rising, partial curve].

For `O=S(=O)(O)c1cc(N=[N+]([O-])c2cc(S(=O)(=O)O)c3ccccc3c2)cc2ccccc12`, which activity change, negative = inhibition is on record?
The activity change, negative = inhibition was inactive: 3.54% [at 7.6 µM].

With `CC(=O)Nc1nn(C)c2nc3cc(C)ccc3cc12` as the molecule, how does the Potency read?
The Potency was inconclusive: 5.01 µM [rising, partial curve].

Which Potency does the source give for `Cc1nc2nc3c(c(=O)n2[nH]1)CCC3` here?
Its Potency is inconclusive: 5.01 µM [rising, single point].

With `O=c1c2c(-c3ccco3)csc2nc(SCc2cn3cccnc3n2)n1-c1ccccc1` as the molecule, how does the Potency read?
The Potency was active: 1 µM.

With `COc1ccc(-c2nc3cnc(N4CCN(C)CC4)nc3n(Cc3ccc(F)cc3)c2=O)cc1` as the molecule, how does the Potency read?
The Potency was inconclusive: 0.398 µM [rising, full curve].

Which Potency does the source give for `Cc1ccccc1-c1nc(N2CCOCC2)c2ccccc2n1` here?
The Potency was inconclusive: 5.01 µM [rising, partial curve].

With `CCOC(=O)N1CCC(Nc2ncnc3c2cnn3-c2ccccc2)CC1` as the molecule, how does the activity change, negative = inhibition read?
Its activity change, negative = inhibition is “inactive”.

Which activity change, negative = inhibition does the source give for `O=C(NCc1ccccc1Cl)c1cnn2cccnc12` here?
Its activity change, negative = inhibition is “inactive”.

For `COc1cc(C2=NOC(C(=O)NCc3ccc(F)cc3)C2)cc(OC)c1OC` (configuration not stated), which Potency is on record?
Its Potency is inconclusive: 3.98 µM [rising, full curve].

With `COC(=O)C1C(=O)c2c([nH]c(C(=O)OCC3CCCO3)c2C)CC1C` (configuration not stated) as the molecule, how does the activity change, negative = inhibition read?
The activity change, negative = inhibition was “inactive”.

For `COc1ccc(S(=O)(=O)N2CCCC2C(=O)NCc2cccs2)cc1` (configuration not stated), which activity change, negative = inhibition is on record?
The activity change, negative = inhibition was “inactive”.

With `Cn1nc(-c2ccccc2F)c2cc(C(=O)N3CCN(C(=O)c4ccco4)CC3)sc21` as the molecule, how does the Potency read?
The Potency was inconclusive: 10 µM [rising, partial curve].

Which Potency does the source give for `COc1cccc(-c2nn(C)c3sc(C(=O)NCc4ccc(C)o4)cc23)c1` here?
The Potency was active: 6.31 µM.

Which activity change, negative = inhibition does the source give for `COCC(=O)N(Cc1cc2ccc(C)cc2[nH]c1=O)c1ccc(OC)cc1` here?
Its activity change, negative = inhibition is “inactive”.

For `CCc1nnc(NC(=O)CSc2nnc(-c3ccccc3NC(=O)c3ccccc3)o2)s1`, which activity change, negative = inhibition is on record?
Its activity change, negative = inhibition is inconclusive: -22.8%.

For `CCOc1ccc(-n2cnnn2)cc1S(=O)(=O)Nc1c(C)cccc1C`, which activity change, negative = inhibition is on record?
Its activity change, negative = inhibition is “inactive”.

Which Potency does the source give for `COC(=O)CSc1nnc(SCc2ccc(OC)cc2)s1` here?
Its Potency is inconclusive: 0.00398 µM [falling, full curve, poor fit].

With `COc1ccc(C(=O)N2CCC3(CC2)CCN(c2ccncc2)CC3)cc1` as the molecule, how does the activity change, negative = inhibition read?
Its activity change, negative = inhibition is “inactive”.

With `O=C(CC(C(=O)N1CCc2ccccc21)n1ccnc1)NCC1CCCO1` (configuration not stated) as the molecule, how does the activity change, negative = inhibition read?
The activity change, negative = inhibition was inconclusive: -5.2%.

Which activity change, negative = inhibition does the source give for `Clc1ccccc1-c1nnc2sc(-c3cccs3)nn12` here?
Its activity change, negative = inhibition is “inactive”.

With `O=S(=O)(c1ccccc1)c1nc(-c2ccco2)oc1N1CCOCC1` as the molecule, how does the activity change, negative = inhibition read?
The activity change, negative = inhibition was inconclusive: -6.87%.

For `CCn1nc(NC(=O)c2cccnc2)c2cc3cccc(C)c3nc21`, which activity change, negative = inhibition is on record?
The activity change, negative = inhibition was “inactive”.

With `O=C(CSc1nnc(-c2ccco2)n1Cc1ccccc1)c1ccccc1` as the molecule, how does the activity change, negative = inhibition read?
Its activity change, negative = inhibition is “inactive”.

With `CSCC[C@H](C=O)NC(=O)[C@H](CC(C)C)NC(=O)[C@H](CC(C)C)NC(C)=O` as the molecule, how does the activity change, negative = inhibition read?
The activity change, negative = inhibition was “inactive”.

For `CCn1cc(C(=O)NCc2ccco2)c(=O)c2cc(S(=O)(=O)N3CCCCCC3)ccc21`, which activity change, negative = inhibition is on record?
The activity change, negative = inhibition was inconclusive: 8.88%.

Which activity change, negative = inhibition does the source give for `CCC/C(O)=C1\C(=O)CC(C)(C)CC1=NCCO` here?
The activity change, negative = inhibition was inconclusive: 21.1%.

For `CC(=O)c1cc(-c2ccccc2)n(CCC(=O)NCc2cccs2)c1C`, which Potency is on record?
Its Potency is inconclusive: 5.01 µM [falling, partial curve].

With `CC1=C(C(=O)N2CCOCC2)C(c2ccsc2)C2=C(CCCC2=O)N1` (configuration not stated) as the molecule, how does the activity change, negative = inhibition read?
Its activity change, negative = inhibition is “inactive”.

With `CN(C)S(=O)(=O)N1CCC(c2ccc(F)cc2)C(COc2ccc3c(c2)OCO3)C1` (configuration not stated) as the molecule, how does the activity change, negative = inhibition read?
Its activity change, negative = inhibition is inconclusive: 1.55%.

Which activity change, negative = inhibition does the source give for `CC(C)c1nnc(NC(=O)CCS(=O)(=O)c2nc(-c3cccs3)cc(C(F)(F)F)n2)s1` here?
Its activity change, negative = inhibition is “inactive”.

With `COc1ccccc1NC(=O)Cc1nn(C)c(=O)c2ccccc12` as the molecule, how does the activity change, negative = inhibition read?
The activity change, negative = inhibition was inconclusive: 7.58%.

For `Cn1c2ccccc2c2c(C(=O)N3CCN(c4ccc(F)cc4)CC3)cn(C3CCCC3)c(=O)c21`, which Potency is on record?
Its Potency is inconclusive: 10 µM [rising, partial curve, poor fit].

With `COc1ccc(-c2nnc3ccc(SCC(=O)N4CCCCCC4)nn23)cc1OC` as the molecule, how does the Potency read?
The Potency was inconclusive: 10 µM [rising, partial curve].

For `CCOc1cc2[nH]c(=S)n(CCCN3CCOCC3)c(=O)c2cc1OCC`, which activity change, negative = inhibition is on record?
Its activity change, negative = inhibition is “inactive”.

For `O=C(Oc1ccccc1)N1CCC2(CC1)CCN(c1ccccc1)CC2`, which activity change, negative = inhibition is on record?
Its activity change, negative = inhibition is “inactive”.

With `CCCC[C@@H]1C[C@H]1C(NC(=O)c1ccccc1)c1ccc(C(=O)OC)cc1` (some centres not stated) as the molecule, how does the activity change, negative = inhibition read?
The activity change, negative = inhibition was inconclusive: 16.5%.

Which activity change, negative = inhibition does the source give for `CN=CC1=C(O)c2ccccc2C1=O` here?
The activity change, negative = inhibition was inconclusive: 13.9%.

For `COCC(=O)N1CCC2(CCCN(Cc3nccs3)C2)CC1`, which activity change, negative = inhibition is on record?
Its activity change, negative = inhibition is “inactive”.
